In the supplement of paper PMC8728848:
This is one part of the list.

What was measured:
Test in all cases: glycan array binding signal (z-score within array); higher = stronger binding
Conditions in all cases: glycan notation: IUPAC condensed, linker removed
Glc(b1-6)Glc = biological target: Glc(b1-6)Glc
Summary of the method: (§1)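 Negative Z-scores can be read as non-binding. The Z-score is calculated within each array and then averaged across arrays of one protein sequence at different concentrations or buffers and across linkers. Arrays, 3228 in all, were curated from the Consortium for Functional Glycomics database and kept only where the protein sequence was available.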

GlcA(b1-3)Gal = biological target: GlcA(b1-3)Gal
Summary of the method: as §1

GlcA(b1-3)GlcNAc = biological target: GlcA(b1-3)GlcNAc
Summary of the method: as §1

GlcA(b1-6)Gal = biological target: GlcA(b1-6)Gal
Summary of the method: as §1

[1] = biological target: GlcA3S(b1-3)Gal(b1-4)GlcNAc(b1-2)Man
Summary of the method: as §1

[2] = biological target: GlcA3S(b1-3)Gal(b1-4)GlcNAc(b1-3)Gal(b1-4)Glc
Summary of the method: as §1

[3] = biological target: GlcNAc(a1-3)Gal(b1-4)GlcNAc
Summary of the method: as §1

[4] = biological target: GlcNAc(a1-4)Gal(b1-3)GlcNAc
Summary of the method: as §1

[5] = biological target: GlcNAc(a1-4)Gal(b1-4)GalNAc
Summary of the method: as §1

[6] = biological target: GlcNAc(a1-4)Gal(b1-4)GlcNAc
Summary of the method: as §1

[7] = biological target: GlcNAc(a1-4)Gal(b1-4)GlcNAc(b1-3)Gal(b1-4)Glc
Summary of the method: as §1

[8] = biological target: GlcNAc(a1-4)Gal(b1-4)GlcNAc(b1-3)Gal(b1-4)GlcNAc
Summary of the method: as §1

[9] = biological target: GlcNAc(a1-4)Gal(b1-4)GlcNAc(b1-3)Gal(b1-4)GlcNAc(b1-3)Gal(b1-4)GlcNAc
Summary of the method: as §1

[10] = biological target: GlcNAc(a1-4)Gal(b1-4)GlcNAc(b1-3)Gal(b1-4)[Fuc(a1-3)]GlcNAc(b1-3)Gal(b1-4)[Fuc(a1-3)]GlcNAc
Summary of the method: as §1

[11] = biological target: GlcNAc(a1-6)Gal(b1-4)GlcNAc
Summary of the method: as §1

[12] = biological target: GlcNAc(b1-2)Gal(b1-3)GalNAc
Summary of the method: as §1

[13] = biological target: GlcNAc(b1-2)Man(a1-3)[GlcNAc(b1-2)Man(a1-6)]Man(b1-4)GlcNAc(b1-4)GlcNAc
Summary of the method: as §1

[14] = biological target: GlcNAc(b1-2)Man(a1-3)[GlcNAc(b1-2)Man(a1-6)]Man(b1-4)GlcNAc(b1-4)[Fuc(a1-6)]GlcNAc
Summary of the method: as §1

[15] = biological target: GlcNAc(b1-2)Man(a1-3)[GlcNAc(b1-4)][GlcNAc(b1-2)Man(a1-6)]Man(b1-4)GlcNAc(b1-4)GlcNAc
Summary of the method: as §1

[16] = biological target: GlcNAc(b1-2)Man(a1-3)[GlcNAc(b1-4)][GlcNAc(b1-2)Man(a1-6)]Man(b1-4)GlcNAc(b1-4)[Fuc(a1-6)]GlcNAc
Summary of the method: as §1

[17] = biological target: GlcNAc(b1-2)[GlcNAc(b1-4)]Man(a1-3)[GlcNAc(b1-2)Man(a1-6)]Man(b1-4)GlcNAc(b1-4)GlcNAc
Summary of the method: as §1

[18] = biological target: GlcNAc(b1-2)[GlcNAc(b1-4)]Man(a1-3)[GlcNAc(b1-4)][GlcNAc(b1-2)Man(a1-6)]Man(b1-4)GlcNAc(b1-4)GlcNAc
Summary of the method: as §1

[19] = biological target: GlcNAc(b1-2)[GlcNAc(b1-4)]Man(a1-3)[GlcNAc(b1-4)][GlcNAc(b1-2)[GlcNAc(b1-6)]Man(a1-6)]Man(b1-4)GlcNAc(b1-4)GlcNAc
Summary of the method: as §1

[20] = biological target: GlcNAc(b1-2)[GlcNAc(b1-4)]Man(a1-3)[GlcNAc(b1-4)][GlcNAc(b1-2)[GlcNAc(b1-6)]Man(a1-6)]Man(b1-4)GlcNAc(b1-4)[Fuc(a1-6)]GlcNAc
Summary of the method: as §1

[21] = biological target: GlcNAc(b1-2)[GlcNAc(b1-6)]Man(a1-6)[GlcNAc(b1-2)Man(a1-3)]Man(b1-4)GlcNAc(b1-4)GlcNAc
Summary of the method: as §1

[22] = biological target: GlcNAc(b1-2)[GlcNAc(b1-6)]Man(a1-6)[GlcNAc(b1-2)Man(a1-3)]Man(b1-4)GlcNAc(b1-4)[Fuc(a1-6)]GlcNAc
Summary of the method: as §1

[23] = biological target: GlcNAc(b1-2)[GlcNAc(b1-6)]Man(a1-6)[GlcNAc(b1-4)][GlcNAc(b1-2)Man(a1-3)]Man(b1-4)GlcNAc(b1-4)GlcNAc
Summary of the method: as §1

GlcNAc(b1-3)Fuc = biological target: GlcNAc(b1-3)Fuc
Summary of the method: as §1

GlcNAc(b1-3)Gal = biological target: GlcNAc(b1-3)Gal
Summary of the method: as §1

[24] = biological target: GlcNAc(b1-3)Gal(b1-3)GalNAc
Summary of the method: as §1

GlcNAc(b1-3)Gal(b1-4)Glc = biological target: GlcNAc(b1-3)Gal(b1-4)Glc
Summary of the method: as §1

[25] = biological target: GlcNAc(b1-3)Gal(b1-4)GlcNAc
Summary of the method: as §1

[26] = biological target: GlcNAc(b1-3)Gal(b1-4)GlcNAc(b1-2)Man(a1-3)[GlcNAc(b1-3)Gal(b1-4)GlcNAc(b1-2)Man(a1-6)]Man(b1-4)GlcNAc(b1-4)GlcNAc
Summary of the method: as §1

[27] = biological target: GlcNAc(b1-3)Gal(b1-4)GlcNAc(b1-2)Man(a1-3)[GlcNAc(b1-3)Gal(b1-4)GlcNAc(b1-2)Man(a1-6)]Man(b1-4)GlcNAc(b1-4)[Fuc(a1-6)]GlcNAc
Summary of the method: as §1

[28] = biological target: GlcNAc(b1-3)Gal(b1-4)GlcNAc(b1-2)[GlcNAc(b1-3)Gal(b1-4)GlcNAc(b1-6)]Man(a1-6)[GlcNAc(b1-3)Gal(b1-4)GlcNAc(b1-2)Man(a1-3)]Man(b1-4)GlcNAc(b1-4)GlcNAc
Summary of the method: as §1

[29] = biological target: GlcNAc(b1-3)Gal(b1-4)GlcNAc(b1-3)Gal(b1-4)GlcNAc
Summary of the method: as §1

[30] = biological target: GlcNAc(b1-3)Gal(b1-4)GlcNAc(b1-3)Gal(b1-4)GlcNAc(b1-2)Man(a1-3)[GlcNAc(b1-3)Gal(b1-4)GlcNAc(b1-3)Gal(b1-4)GlcNAc(b1-2)Man(a1-6)]Man(b1-4)GlcNAc(b1-4)GlcNAc
Summary of the method: as §1

[31] = biological target: GlcNAc(b1-3)Gal(b1-4)GlcNAc(b1-3)Gal(b1-4)GlcNAc(b1-2)Man(a1-3)[GlcNAc(b1-3)Gal(b1-4)GlcNAc(b1-3)Gal(b1-4)GlcNAc(b1-2)Man(a1-6)]Man(b1-4)GlcNAc(b1-4)[Fuc(a1-6)]GlcNAc
Summary of the method: as §1

[32] = biological target: GlcNAc(b1-3)Gal(b1-4)GlcNAc(b1-3)Gal(b1-4)GlcNAc(b1-2)[GlcNAc(b1-3)Gal(b1-4)GlcNAc(b1-3)Gal(b1-4)GlcNAc(b1-6)]Man(a1-6)[GlcNAc(b1-3)Gal(b1-4)GlcNAc(b1-3)Gal(b1-4)GlcNAc(b1-2)Man(a1-3)]Man(b1-4)GlcNAc(b1-4)[Fuc(a1-6)]GlcNAc
Summary of the method: as §1

[33] = biological target: GlcNAc(b1-3)Gal(b1-4)GlcNAc(b1-3)Gal(b1-4)GlcNAc(b1-3)Gal(b1-4)GlcNAc(b1-2)Man(a1-3)[GlcNAc(b1-3)Gal(b1-4)GlcNAc(b1-3)Gal(b1-4)GlcNAc(b1-3)Gal(b1-4)GlcNAc(b1-2)Man(a1-6)]Man(b1-4)GlcNAc(b1-4)GlcNAc
Summary of the method: as §1

[34] = biological target: GlcNAc(b1-3)Gal(b1-4)GlcNAc(b1-3)Gal(b1-4)GlcNAc(b1-3)Gal(b1-4)GlcNAc(b1-2)Man(a1-3)[GlcNAc(b1-3)Gal(b1-4)GlcNAc(b1-3)Gal(b1-4)GlcNAc(b1-3)Gal(b1-4)GlcNAc(b1-2)Man(a1-6)]Man(b1-4)GlcNAc(b1-4)[Fuc(a1-6)]GlcNAc
Summary of the method: as §1

[35] = biological target: GlcNAc(b1-3)Gal(b1-4)GlcNAc(b1-3)Gal(b1-4)GlcNAc(b1-3)Gal(b1-4)GlcNAc(b1-2)[GlcNAc(b1-3)Gal(b1-4)GlcNAc(b1-3)Gal(b1-4)GlcNAc(b1-3)Gal(b1-4)GlcNAc(b1-6)]Man(a1-6)[GlcNAc(b1-3)Gal(b1-4)GlcNAc(b1-3)Gal(b1-4)GlcNAc(b1-3)Gal(b1-4)GlcNAc(b1-2)Man(a1-3)]Man(b1-4)GlcNAc(b1-4)[Fuc(a1-6)]GlcNAc
Summary of the method: as §1

[36] = biological target: GlcNAc(b1-3)Gal(b1-4)GlcNAc(b1-3)Gal(b1-4)GlcNAc(b1-3)Gal(b1-4)GlcNAc(b1-3)Gal(b1-4)GlcNAc(b1-2)Man(a1-3)[GlcNAc(b1-3)Gal(b1-4)GlcNAc(b1-3)Gal(b1-4)GlcNAc(b1-3)Gal(b1-4)GlcNAc(b1-3)Gal(b1-4)GlcNAc(b1-2)Man(a1-6)]Man(b1-4)GlcNAc(b1-4)GlcNAc
Summary of the method: as §1

[37] = biological target: GlcNAc(b1-3)Gal(b1-4)GlcNAc(b1-3)Gal(b1-4)GlcNAc(b1-3)Gal(b1-4)GlcNAc(b1-3)Gal(b1-4)GlcNAc(b1-2)Man(a1-3)[GlcNAc(b1-3)Gal(b1-4)GlcNAc(b1-3)Gal(b1-4)GlcNAc(b1-3)Gal(b1-4)GlcNAc(b1-3)Gal(b1-4)GlcNAc(b1-2)Man(a1-6)]Man(b1-4)GlcNAc(b1-4)[Fuc(a1-6)]GlcNAc
Summary of the method: as §1

[38] = biological target: GlcNAc(b1-3)Gal(b1-4)GlcNAc(b1-3)Gal(b1-4)GlcNAc(b1-3)Gal(b1-4)GlcNAc(b1-3)Gal(b1-4)GlcNAc(b1-2)[GlcNAc(b1-3)Gal(b1-4)GlcNAc(b1-3)Gal(b1-4)GlcNAc(b1-3)Gal(b1-4)GlcNAc(b1-3)Gal(b1-4)GlcNAc(b1-6)]Man(a1-6)[GlcNAc(b1-3)Gal(b1-4)GlcNAc(b1-3)Gal(b1-4)GlcNAc(b1-3)Gal(b1-4)GlcNAc(b1-3)Gal(b1-4)GlcNAc(b1-2)Man(a1-3)]Man(b1-4)GlcNAc(b1-4)[Fuc(a1-6)]GlcNAc
Summary of the method: as §1

B1: FimA-N1 (Actinomyces oris) (protein)
chain: MHHHHHHSSGVDLGTENLYFQSNATETPNYGNIKTDATGSLVIHKHLTGGGKDIGTPTGTAQNADDKGPAVEGVVFTAYPITDINLKDPAGWDTISNLSRTGVPDSACANPAAPTLGAHQFGTPKVSPATTKEGLATITEMPVQAYLVCETTTPGDIVQKAKPFVVTIPHPNTAAGADGQWIYDVNVYPKNEAIDVDKTIQAQK
glycan array binding signal (z-score) (Glc(b1-6)Glc): -0.022 | glycan array binding signal (z-score) (GlcA(b1-3)Gal): 0.041 | glycan array binding signal (z-score) (GlcA(b1-3)GlcNAc): 0.157 | glycan array binding signal (z-score) (GlcA(b1-6)Gal): -0.119 | glycan array binding signal (z-score) [1]: -0.364 | glycan array binding signal (z-score) [2]: -0.014 | glycan array binding signal (z-score) [3]: -0.349 | glycan array binding signal (z-score) [4]: -0.336 | glycan array binding signal (z-score) [5]: -0.382 | glycan array binding signal (z-score) [6]: -0.509 | glycan array binding signal (z-score) [7]: -0.076 | glycan array binding signal (z-score) [8]: -0.357 | glycan array binding signal (z-score) [9]: -0.152 | glycan array binding signal (z-score) [10]: 0.476 | glycan array binding signal (z-score) [11]: -0.193 | glycan array binding signal (z-score) [12]: -0.284 | glycan array binding signal (z-score) [13]: 0.007 | glycan array binding signal (z-score) [14]: -0.346 | glycan array binding signal (z-score) [15]: -0.095 | glycan array binding signal (z-score) [16]: -0.505 | glycan array binding signal (z-score) [17]: -0.244 | glycan array binding signal (z-score) [18]: -0.313 | glycan array binding signal (z-score) [19]: -0.325 | glycan array binding signal (z-score) [20]: -0.556 | glycan array binding signal (z-score) [21]: -0.228 | glycan array binding signal (z-score) [22]: 0.206 | glycan array binding signal (z-score) [23]: -0.496 | glycan array binding signal (z-score) (GlcNAc(b1-3)Fuc): -0.329 | glycan array binding signal (z-score) (GlcNAc(b1-3)Gal): -0.237 | glycan array binding signal (z-score) [24]: 0.195 | glycan array binding signal (z-score) (GlcNAc(b1-3)Gal(b1-4)Glc): -0.05 | glycan array binding signal (z-score) [25]: -0.34 | glycan array binding signal (z-score) [26]: 0.044 | glycan array binding signal (z-score) [27]: -0.002 | glycan array binding signal (z-score) [28]: -0.318 | glycan array binding signal (z-score) [29]: -0.033 | glycan array binding signal (z-score) [30]: -0.187 | glycan array binding signal (z-score) [31]: -0.028 | glycan array binding signal (z-score) [32]: -0.229 | glycan array binding signal (z-score) [33]: -0.25 | glycan array binding signal (z-score) [34]: 0.187 | glycan array binding signal (z-score) [35]: -0.242 | glycan array binding signal (z-score) [36]: 0.054 | glycan array binding signal (z-score) [37]: -0.204 | glycan array binding signal (z-score) [38]: -0.026
